PMC4336329 (PLoS ONE, 2015)
Out of some 310,000 compounds screened, about 2,200 (0.71%) showed an effect of 50% or more. Effects have a minus sign here. The list shows a part of the results.

The molecules below were run against human ether-à-go-go-related gene (hERG) potassium channel (human, UniProt Q12809) (assay: primary screen, population patch clamp on CHO cells stably expressing hERG).
Chain of human ether-à-go-go-related gene (hERG) potassium channel (Q12809 whole entry, looked up): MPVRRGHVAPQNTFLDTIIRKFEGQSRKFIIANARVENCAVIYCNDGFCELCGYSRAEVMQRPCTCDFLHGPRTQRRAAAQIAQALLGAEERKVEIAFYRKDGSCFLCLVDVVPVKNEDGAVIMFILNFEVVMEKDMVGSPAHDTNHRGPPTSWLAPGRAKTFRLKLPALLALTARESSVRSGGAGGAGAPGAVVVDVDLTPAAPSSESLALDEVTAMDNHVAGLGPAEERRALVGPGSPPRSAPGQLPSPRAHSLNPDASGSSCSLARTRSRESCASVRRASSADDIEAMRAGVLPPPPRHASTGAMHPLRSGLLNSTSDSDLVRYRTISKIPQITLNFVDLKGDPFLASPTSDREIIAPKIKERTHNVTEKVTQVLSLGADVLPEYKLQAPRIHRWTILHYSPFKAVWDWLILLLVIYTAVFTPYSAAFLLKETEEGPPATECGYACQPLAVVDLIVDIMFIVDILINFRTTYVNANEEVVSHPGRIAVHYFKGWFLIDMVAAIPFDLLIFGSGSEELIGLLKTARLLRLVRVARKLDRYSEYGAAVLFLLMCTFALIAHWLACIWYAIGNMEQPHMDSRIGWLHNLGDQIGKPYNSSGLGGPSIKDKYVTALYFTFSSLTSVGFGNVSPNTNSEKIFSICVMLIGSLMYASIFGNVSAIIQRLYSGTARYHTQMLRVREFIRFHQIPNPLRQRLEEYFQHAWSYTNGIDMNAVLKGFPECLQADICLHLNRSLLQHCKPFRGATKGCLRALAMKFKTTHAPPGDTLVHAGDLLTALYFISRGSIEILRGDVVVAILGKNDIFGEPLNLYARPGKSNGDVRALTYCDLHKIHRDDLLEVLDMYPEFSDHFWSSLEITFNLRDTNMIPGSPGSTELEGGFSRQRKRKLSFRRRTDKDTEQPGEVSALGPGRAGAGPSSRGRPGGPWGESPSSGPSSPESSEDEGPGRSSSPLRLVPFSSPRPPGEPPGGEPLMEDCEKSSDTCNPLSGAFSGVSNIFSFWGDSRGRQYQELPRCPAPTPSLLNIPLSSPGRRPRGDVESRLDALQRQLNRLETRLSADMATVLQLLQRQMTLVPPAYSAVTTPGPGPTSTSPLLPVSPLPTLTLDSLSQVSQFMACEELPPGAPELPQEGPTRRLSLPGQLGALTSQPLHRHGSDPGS

Row | Structure (SMILES) | hERG current change (%, negative = inhibition) at 1uM
1 | Cc1ccc(C2=Nc3ccccc3N=C(C(Cl)Cl)C2)cc1 | 4.33%
2 | O=C(NNC(=S)NC(=O)c1ccccc1Cl)c1cccc([N+](=O)[O-])c1 | 6.85%
3 | CC(C)CC1c2[nH]c3ccccc3c2CCN1C(=O)c1cnccn1 (centres unmarked) | 9.53%
4 | CC1=CC(=O)C=C/C1=C(/c1ccc(O)cc1C)c1ccccc1S(=O)(=O)[O-].[Na+] | 13%
5 | Cn1c(NC(=O)c2ccco2)cc(=O)n(C)c1=O | 8.38%
6 | CCOC(=O)/C=C/CN(C(=O)OC(C)(C)C)S(=O)(=O)N1CC=CC1 | 16.6%
7 | O=C(Nc1ccc(Cl)cc1)c1cncs1 | 11.3%
8 | COc1ccc(CCNC(=O)Cn2nnc(-c3cccs3)n2)cc1OC | -1.16%
9 | CN(Cc1ccc2nonc2c1)Cc1nc(CC2CC2)no1 | 5.26%
10 | COc1ccc(-n2c(C)cc(/C=C/c3nc(O)c([N+](=O)[O-])c(=O)[nH]3)c2C)cc1 | 13.7%
11 | CCCC[C@@H]1CNC(=S)N1CCCC | 9.14%
12 | CCCOC(=O)NC(CC)COC(=O)Nc1cc(C)ccc1C (centres unmarked) | 6.68%
13 | CCC1CCCCN1CCCNC(=O)Cn1cc2c(n1)-c1c(oc(C(=O)N3CCCC3)c1C)CC2 (centres unmarked) | 18.5%
14 | CCc1ccc(S(=O)(=O)Nc2cc3c(cc2C)n(C)c(=O)n3C)cc1 | 5.77%
15 | Cc1cccnc1CCNC(=O)C1CCC(=O)N(Cc2cccc(F)c2)C1 (centres unmarked) | 8.44%
16 | CCOc1ccc(NC(=O)CSc2nc3[nH]ncc3c(=O)[nH]2)cc1 | 12.5%
17 | Cc1ccc(-c2[nH]c3ccccc3c2SCCNC(=O)c2cc3ccccc3oc2=O)cc1 | 19.2%
18 | CCCC(=O)N(c1ccc2oc(=O)sc2c1)S(=O)(=O)c1cccs1 | 11.3%
19 | CCCn1c(N)c(C(=O)CSc2nnc(Cc3ccccc3)o2)c(=O)n(C)c1=O | 6.61%
20 | CC(CNC(=O)c1cc(Cl)ccc1[N+](=O)[O-])NC(=O)c1cc(Cl)ccc1[N+](=O)[O-] (centres unmarked) | 7.84%
21 | COc1c(C)cc(S(=O)(=O)N2CCOCC2)c(C)c1C | 14.3%
22 | CCCOc1ccc(C(=O)NNC(=S)NC(=O)c2ccccc2)cc1 | 19.2%
23 | N#Cc1cccc(NS(=O)(=O)c2ccccc2Cl)c1 | 14.9%

Row | Structure (SMILES) | hERG current change (%, negative = inhibition) at 1uM
24 | CCCCOc1ccc(C(=O)Oc2ccc(C)nc2)cc1 | 17.3%
25 | CCCCn1c(O)c(C(CC)=Nc2cccc(C(=O)O)c2)c(=O)[nH]c1=O | 1.56%
26 | Cc1ccc(C)c2[nH]c(=O)c(C(c3nnnn3CCc3ccccc3)N3CCOCC3)cc12 (centres unmarked) | -25.9%
27 | CCCCCn1c2nc3ccccc3nc2c2c(=O)n(CC(C)C)cnc21 | 11.2%
28 | Cl.O.O=C(c1ccc(F)cc1)C1CCN(CCn2c(=S)[nH]c3ccccc3c2=O)CC1 | -77.7%
29 | Cc1ccc(C(=O)N2CCCCC2C(=O)O)o1 (centres unmarked) | 7.85%
30 | COc1ccc2[nH]c3c(=O)n(CCCCCC(=O)NCCC(C)C)c(=S)[nH]c3c2c1 | 3.48%
31 | Cc1ccc(C)c2[nH]c(=O)c(CCNC(=O)CC(C)C)cc12 | 11.3%
32 | Cc1cc(C)c(S(=O)(=O)c2ccccc2Cl)c(=O)[nH]1 | 10.3%
33 | CC1CCN(C(=O)CN(C2CCCCC2)S(C)(=O)=O)CC1 | 2.88%
34 | O=C(Cc1cccs1)N1CCN(S(=O)(=O)c2cccc([N+](=O)[O-])c2)CC1 | 7.67%
35 | CCCCCCCC(=O)OCC(COC(=O)CCCCCCC)OC(=O)CCCCCCC | 11.2%
36 | CC(=O)c1cccc(NC(=O)CSc2ccc(-c3sc(C)nc3C)nn2)c1 | 8.54%
37 | CCOC(=O)C1CCN(C(=O)COc2cc(C)c(Br)cc2C)CC1 | 5.63%
38 | COc1ccc(OC)c(NC(=O)C2C3CCC(O3)C2C(=O)O)c1 (centres unmarked) | 10.4%
39 | N#Cc1nc(-c2ccc(OCc3ccccc3)cc2)oc1NCCCn1ccnc1 | 8.19%
40 | CCS(=O)(=O)Nc1ccc(C2=NN(C(C)=O)C(c3cccs3)C2)cc1 (centres unmarked) | 7.09%
41 | CCOC(=O)COn1c2c(c3c4no[n+]([O-])c4ccc31)CCCC2 | 8.52%
42 | O=C(N/N=C/c1cccnc1)c1cccc(Br)c1 | 16.2%
43 | CCOc1cccc(C(=O)Nc2ccc(N(CC)CC)cc2)c1 | -1.06%
44 | O=C(CCN1C(=O)C2C3C=CC(C3)C2C1=O)N1CCN(c2ccccn2)CC1 (centres unmarked) | -1.12%
45 | CCC1=NN(C(=O)Cc2ccc(OC)c(OC)c2)C(O)(C(F)(F)F)C1 (centres unmarked) | 19.9%
46 | Cc1ccc(C)c(NC(=O)CCc2nnc3ccc(NCc4ccco4)nn23)c1 | 22.2%

Row | Structure (SMILES) | hERG current change (%, negative = inhibition) at 1uM
47 | S=C(Nc1ccccc1)Nc1cc(Cl)ccc1Oc1ccccc1 | 2.12%
48 | O=C(CCl)Nc1ccccc1Sc1ccccc1 | -7.81%
49 | COc1ccc(Nc2nc(C(F)(F)F)nc(C)c2C#N)cc1 | 8.84%
50 | COc1ccccc1OCc1cc(-c2ccccc2)no1 | 5.68%
51 | Cc1ccccc1C1c2[nH]c3ccccc3c2C[C@H]2C(=O)N(C3CC3)CC(=O)N12 (some centres unmarked) | 20%
52 | CC(=O)c1sc(NC(=O)c2ccc(C(C)(C)C)cc2)nc1C | -7.37%
53 | CCOC(=O)NCc1ccc(Cl)c(Cl)c1 | -0.0645%
54 | O=C(O)CC1C(=O)NCCN1CCCc1ccccc1 (centres unmarked) | 6.57%
55 | Cc1ccc(Cn2c(SCCN3CCCCC3)nc3c2c(=O)[nH]c(=O)n3C)cc1 | -77.5%
56 | CN(C(=O)c1sc2nc(N3CCOCC3)c3c(c2c1N)CCCC3)c1ccccc1 | 10.4%
57 | CCOC(=O)c1cc(-c2ccccc2)n(CC(=O)Nc2ccc(OC)c(OC)c2)c1C | 4.12%
58 | Cc1cc(NC(=O)c2ccc(F)cc2F)n(-c2nc3ccccc3[nH]2)n1 | 20.2%
59 | O=C(NCCc1ccc(Cl)cc1)C(=O)c1c[nH]c2ccccc12 | 7.93%
60 | Cc1ccc2[nH]c(=O)c(C(c3nnnn3CC3CCCO3)N3CCc4ccccc4C3)cc2c1 (centres unmarked) | -1.99%
61 | COc1cc2c(C)nc3c(c(C)nn3-c3ccccc3)c2cc1OC | 9.71%
62 | CCCN(CC(=O)Nc1ccccc1Br)CC(=O)Nc1ccc(F)c(F)c1F | 3.83%
63 | CCN1CCN(c2ccc(N)cc2C)CC1.Cl | 6.19%
64 | CN=c1sc2ccccc2n1CC(O)c1ccccc1 (centres unmarked) | 11.5%
65 | O=C(CSc1nnc(Cc2ccccc2)o1)c1ccc2c(c1)OCO2 | 1.33%
66 | Cc1nn2c3ccccc3n(Cc3ccccc3)c2nc1=O | 11.5%
67 | OCCOCCn1c(CCNc2nc(-c3ccc(Cl)cc3)cs2)nc2cc(Cl)c(Cl)cc21 | 8.6%
68 | O=S(=O)(c1ccccc1)c1nc(NCc2ccccc2)sc1Cl | 4.21%
69 | CCOC(=O)N1CCN(C(=O)c2cn(CCOC)c(=O)c3c2c2ccccc2n3C)CC1 | 13.3%

Row | Structure (SMILES) | hERG current change (%, negative = inhibition) at 1uM
70 | CN(Cc1nc(-c2cnccn2)no1)C1CC(C)(C)NC(C)(C)C1 | 11.1%
71 | O=C(COn1nnc2ccccc21)NCC1CCCCC1 | 14.6%
72 | O=C(O)c1cc(-c2ccc(-c3ccc(F)cc3)o2)nc2ccccc12 | 5.79%
73 | Cc1ccc(NC(=O)CN2C(=O)N/C(=C/c3ccc(C)s3)C2=O)cc1 | 3.04%
74 | CC(C)CNC(=O)COC(=O)c1c2c(nc3ccccc13)/C(=C/c1cccs1)CC2 | 7.22%
75 | N#Cc1ccc(NC(=O)CSc2n[nH]c(=O)n2C2CC2)cc1 | 6.72%
76 | CC(C)C[C@@H](CN(N=O)[C@@H](Cc1ccccc1)CN(C)N=O)N(CCc1ccccc1)N=O.[Na+] | -0.916%
77 | CCC(C)NCc1ccc(C(=O)OC)o1.Cl (centres unmarked) | 21.6%
78 | CNc1ccccc1C(=O)OCC(=O)N(CCOC)c1c(N)n(CC(C)C)c(=O)[nH]c1=O | 14.4%
79 | N/C(=N\OC(=O)c1ccc2c(c1)OCO2)c1ccc(Br)cc1 | 8.11%
80 | O=C1CCCN1C(=O)COc1ccc([N+](=O)[O-])cc1 | 6.05%
81 | O=C(C[n+]1ccc2ccccc2c1)c1ccc(NC(=O)c2ccccc2)cc1.[Br-] | 10.8%
82 | CCN(CC1CCCN(CCc2cccc(F)c2)C1)C(=O)c1ccc(CSC)o1 (centres unmarked) | -52%
83 | Cc1ccc2cccc(NC(=S)NC(=O)c3ccn(C)n3)c2n1 | 14.4%
84 | Cn1c(SCc2cccc(F)c2)nnc1-c1ccncc1 | 20.2%
85 | COc1ccc(C2CC(c3cccs3)=NN2c2ccc(F)cc2)cc1OC (centres unmarked) | 9.8%
86 | CCOC(=O)c1ccc(N=C2SC(C(=O)Nc3ccc(C(=O)O)cc3)CC(=O)N2Cc2cccs2)cc1 (centres unmarked) | 10.7%
87 | O=C(O)CSCC(=O)NC1CCCc2ccccc21 (centres unmarked) | 11.4%
88 | CCCC(C)NC(=O)c1ccc2[nH]c3c(c2c1)CC(C)CC3 (centres unmarked) | 7.87%
89 | COC(=O)c1ccccc1NC(=O)COC(=O)C1CCCCC1 | 7.08%
